Test results from PubChem BioAssay (NCI).
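Dose response: 5 concentrations. Exposure: 48 h. Format: 96-well plates. Endpoint: linear interpolation; highest concentration if not reached. Abbreviation: GI50, concentration required for 50% inhibition of growth. TGI: total growth inhibition.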

Test system: NCI-H322M lung
Test: NCI anticancer screen, dose series, 48 h

Row | Structure (SMILES) | GI50 | TGI
1 | NS(=O)(=O)c1ccc(N=Nc2c(O)n(CC(=O)Nc3ccccc3Cl)c3ccccc23)cc1 | 2.6 µM | 7.87 µM
2 | COc1ccc(-c2cc(-c3cc(OC)c(OC)c(OC)c3)[nH]c(=O)c2C#N)cc1 | 6.69 µM | > 100 µM
3 | O=C(O)CCCCCCCCCCN1C(=O)/C(=C/c2cnc(-c3ccc(Cl)cc3)s2)SC1=S | 1.85 µM | 8.25 µM
4 | COc1cc2cc(C(=O)N3C[C@@H](CCl)c4c3cc(OC(=O)N3CCN(C)[C@@H]5CSSC[C@@H]53)c3ccccc43)[nH]c2c(OC)c1OC | 0.244 µM | 4.39 µM
